The source of these data is patent US3980522A, “Production of a new antibiotic, calvatic acid” (Zaidan Hojin Biseibutsu Kagaku Kenkyu Kai, priority 1973, dated 1976).

The experiment relates to Bacillus anthracis. Nature of the experiment: microbe, parasite or virus in culture. It counts as cell-based.

In brackets after ≈: the same amount, converted by molar mass.

On to `COC(=O)c1ccc([N+]([O-])=NC#N)cc1` [calvatic acid methyl ester], for which the MIC is less than 0.78 µg/mL. Take `N#CN=[N+]([O-])c1ccc(C(=O)O)cc1` [calvatic acid, p-carboxyphenylazoxycarbonitrile]: the MIC amounted to 6.25 µg/mL (≈ 32.7 µM).
